Source: the antibiotic and cytotoxicity screens of Wong et al. (2023)
Some of the results follow.

What was measured:
[1] = tested on: HSkMC (human skeletal muscle cells); test: cytotoxicity call (relative viability < 0.9); settings: 10 µM
[2] = tested on: HepG2; test: cytotoxicity call (relative viability < 0.9); settings: 10 µM
[3] = tested on: S. aureus RN4220; test: growth inhibition call (relative growth <= 0.2); settings: 50 µM

O=C(C[C@H]1C=C[C@H](NC(=O)Nc2cc(F)ccc2F)[C@@H](CO)O1)NCCCN1CCOCC1
cytotoxicity call [1]: inactive
cytotoxicity call [2]: inactive
growth inhibition call [3]: inactive

COc1ccc(NC(=O)Nc2ccc3c(c2)C(=O)N([C@H](C)CO)C[C@H](C)[C@H](CN(C)C(=O)c2ccccc2)OCCCC[C@@H](C)O3)cc1
cytotoxicity call [1]: inactive
cytotoxicity call [2]: inactive
growth inhibition call [3]: inactive

COc1ccc2c3c(n(c2c1)C)[C@H](CO)N(Cc1cc(cc(c1)OC)OC)C[C@]13CN(C1)C(=O)NC(C)C
cytotoxicity call [1]: inactive
cytotoxicity call [2]: inactive
growth inhibition call [3]: inactive

COCC(=O)Nc1ccc2c(c1)C(=O)N(C)C[C@H](OC)[C@H](C)CN(Cc1ccccc1OC)[C@H](C)CO2
cytotoxicity call [1]: inactive
cytotoxicity call [2]: inactive
growth inhibition call [3]: inactive

C[C@@H]1CCCCO[C@H](CN(C)S(=O)(=O)c2ccc(F)cc2)[C@@H](C)CN([C@H](C)CO)C(=O)c2cc(NC(=O)C3CCCCC3)ccc2O1
cytotoxicity call [1]: inactive
cytotoxicity call [2]: inactive
growth inhibition call [3]: inactive

O=C(C[C@H]1CC[C@@H]2[C@H](COC[C@@H](O)CN2C(=O)Nc2ccc(Cl)c(Cl)c2)O1)NCc1ccncc1
cytotoxicity call [1]: inactive
cytotoxicity call [2]: inactive
growth inhibition call [3]: active
